Laboratory results from the supplement of paper PMC10126150.
Values marked as one replicate rest on one cluster of the flow cell; about a third of the high ones do not repeat.

What follows are sequences tested on ATP (assay: switch fluorescence ratio, 500 uM ATP over buffer (Cy3 cluster intensity, sum of 5 cycles each) (fold (ratio)); higher = stronger signal-on switching upon ATP binding; sequences stand for … in TCGTCGGCAGCGTCAGATGTGTATAAGAGACAGTTTTTTTTTTTTTTTTTTTTTTTTT…TC). Details: aptamer strand: ATP DNA aptamer (quencher-CACCTGGGGGAGTATTGCGGAGGAAGG + anchor), 100 nM annealed; ATP concentration: 500 uM; one replicate.
Outline: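 Values give the fluorescence ratio for each switch-domain sequence, averaged from per-cluster ratios of summed target-cycle to summed buffer-cycle Cy3 intensity. The Cy3-labelled switching-strand clusters sat on a modified Illumina MiSeq flow-cell, were annealed to 100 nM quencher-labelled ATP aptamer, and were imaged in selection buffer, then after 15 min with 500 uM ATP at 22 °C. Five cycles ran with NaOH stripping and re-annealing between them, and clusters outside 100-1000 RFU were excluded.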
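Further: ATP exposure 15 min at 22 °C before imaging.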

| Sequence | switch fluorescence ratio |
| --- | --- |
| TGAGAAGAT | 1.02 |
| TGAGAATATA | 1.02 |
| TGAGAATGGT | 0.932 |
| TGAGACAATT | 0.971 |
| TGAGAGCACT | 1.03 |
| TGAGAGTGTC | 1.04 |
| TGAGATACAC | 1.05 |
| TGAGATACTA | 1.01 |
| TGAGATGTAG | 1 |
| TGAGATTAAG | 0.992 |
| TGAGCATGAC | 1.58 |
| TGAGCATTAT | 2.01 |
| TGAGCCAGCA | 1.03 |
| TGAGCCGGAG | 0.955 |
| TGAGCGTCAC | 1.02 |
| TGAGCTAGTA | 1.04 |
| TGAGCTATT | 0.962 |
| TGAGCTTCCC | 1.28 |
| TGAGCTTGG | 0.987 |
| TGAGGAACGG | 0.957 |
| TGAGGACGGG | 1 |
| TGAGGCACAA | 1.03 |
| TGAGGCAGCC | 1.06 |
| TGAGGCCAA | 1.04 |
| TGAGGCCGGA | 0.962 |

| Sequence | switch fluorescence ratio |
| --- | --- |
| TGAGGCGGAG | 0.997 |
| TGAGGCTCT | 1.02 |
| TGAGGGCACC | 1.12 |
| TGAGGGCTCC | 0.988 |
| TGAGGGTCGT | 0.985 |
| TGAGTAAAGT | 1.04 |
| TGAGTAGTCG | 0.956 |
| TGAGTATTGA | 1.02 |
| TGAGTCAGCG | 1.06 |
| TGAGTCTAAG | 0.984 |
| TGAGTGAACA | 1.01 |
| TGAGTGCTCG | 1.01 |
| TGAGTGTCAA | 0.972 |
| TGAGTGTTAG | 0.982 |
| TGAGTTGCAG | 1 |
| TGAGTTGGT | 0.992 |
| TGAGTTTACT | 0.985 |
| TGAGTTTGGA | 1.05 |
| TGATAACTGA | 1.01 |
| TGATAATCAG | 0.991 |
| TGATACACAA | 1.03 |
| TGATACCGAT | 1.05 |
| TGATACGTGA | 1.03 |
| TGATAGATGG | 1 |
| TGATAGGCTT | 1 |

| Sequence | switch fluorescence ratio |
| --- | --- |
| TGATATCAAA | 0.995 |
| TGATATTAAA | 0.973 |
| TGATCCAACG | 0.991 |
| TGATCGGAAA | 0.991 |
| TGATCGGGAT | 1.04 |
| TGATCGTATA | 1 |
| TGATCTCTGA | 1.08 |
| TGATGAAGAA | 1.01 |
| TGATGATTGG | 0.993 |
| TGATGCGAA | 1.22 |
| TGATGCGTCG | 0.951 |
| TGATGGCAAG | 1.01 |
| TGATGGCTTT | 1.05 |
| TGATGTAAAT | 1.08 |
| TGATGTGGTT | 0.964 |
| TGATTACATT | 1.02 |
| TGATTCCTAT | 1 |
| TGATTCGATC | 0.928 |
| TGATTGACGT | 1.05 |
| TGATTGTGTG | 1.05 |
| TGATTTGCCC | 1.03 |
| TGATTTGTGT | 0.977 |
| TGATTTTAGC | 0.976 |
| TGATTTTGAC | 0.99 |
| TGCAAACCAG | 1.01 |

| Sequence | switch fluorescence ratio |
| --- | --- |
| TGCAAATCA | 1.26 |
| TGCAACATGT | 1 |
| TGCAACCAAG | 1.02 |
| TGCAACCCGG | 0.992 |
| TGCAACGTGT | 0.964 |
| TGCAAGCCGG | 1 |
| TGCAAGGCGT | 0.997 |
| TGCACAGAGG | 1.04 |
| TGCACCAGAA | 1.03 |
| TGCACCGTAC | 1.8 |
| TGCACGCAGA | 1.12 |
| TGCACGCATG | 1.04 |
| TGCACGCCAC | 2.11 |
| TGCACGCGTA | 1.01 |
| TGCACGTGG | 0.968 |
| TGCACTGATA | 1.01 |
| TGCACTTCCC | 1.33 |
| TGCAGAAGAT | 1.02 |
| TGCAGAAGCA | 1.01 |
| TGCAGAGAAG | 0.98 |
| TGCAGCCCGT | 1.02 |
| TGCAGCGGGA | 1.04 |
| TGCAGCGGGT | 1.04 |
| TGCAGCTGAG | 0.965 |
| TGCAGGCCCA | 0.99 |
